According to the supplement of paper PMC8728848:
This is one part of the list.

How the values were obtained:
Test in all cases: glycan array binding signal (z-score within array); higher = stronger binding
Details in all cases: glycan notation: IUPAC condensed, linker removed
[1] = biological target: Gal(a1-3)[Gal(a1-4)]Gal(b1-4)GlcNAc
Summary of the method: (§1)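 From the Consortium for Functional Glycomics database, 3228 arrays were curated, keeping only those whose protein sequence was available. Binding is given as a within-array Z-score averaged across arrays sharing a protein sequence and across linkers. Negative Z-scores can be read as non-binding.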

[2] = biological target: Gal(a1-4)Gal(b1-3)GlcNAc(b1-2)Man(a1-3)[Gal(a1-4)Gal(b1-3)GlcNAc(b1-2)Man(a1-6)]Man(b1-4)GlcNAc(b1-4)GlcNAc
Summary of the method: as §1

Gal(a1-4)Gal(b1-4)Glc = biological target: Gal(a1-4)Gal(b1-4)Glc
Summary of the method: as §1

Gal(a1-4)Gal(b1-4)GlcNAc = biological target: Gal(a1-4)Gal(b1-4)GlcNAc
Summary of the method: as §1

[3] = biological target: Gal(a1-4)Gal(b1-4)GlcNAc(b1-2)Man(a1-3)[Gal(a1-4)Gal(b1-4)GlcNAc(b1-2)Man(a1-6)]Man(b1-4)GlcNAc(b1-4)GlcNAc
Summary of the method: as §1

[4] = biological target: Gal(a1-4)Gal(b1-4)GlcNAc(b1-3)Gal(b1-4)Glc
Summary of the method: as §1

Gal(a1-4)GlcNAc = biological target: Gal(a1-4)GlcNAc
Summary of the method: as §1

Gal(a1-6)Glc = biological target: Gal(a1-6)Glc
Summary of the method: as §1

Gal(b1-2)Gal = biological target: Gal(b1-2)Gal
Summary of the method: as §1

Gal(b1-3)Gal = biological target: Gal(b1-3)Gal
Summary of the method: as §1

Gal(b1-3)Gal(b1-4)GlcNAc = biological target: Gal(b1-3)Gal(b1-4)GlcNAc
Summary of the method: as §1

Gal(b1-3)GalNAc = biological target: Gal(b1-3)GalNAc
Summary of the method: as §1

[5] = biological target: Gal(b1-3)GalNAc(a1-3)[Fuc(a1-2)]Gal(b1-4)Glc
Summary of the method: as §1

[6] = biological target: Gal(b1-3)GalNAc(a1-3)[Fuc(a1-2)]Gal(b1-4)GlcNAc
Summary of the method: as §1

Gal(b1-3)GalNAc(b1-3)Gal = biological target: Gal(b1-3)GalNAc(b1-3)Gal
Summary of the method: as §1

[7] = biological target: Gal(b1-3)GalNAc(b1-3)Gal(a1-4)Gal(b1-4)Glc
Summary of the method: as §1

[8] = biological target: Gal(b1-3)GalNAc(b1-4)Gal(b1-4)Glc
Summary of the method: as §1

[9] = biological target: Gal(b1-3)GalNAc(b1-4)[Neu5Ac(a2-3)]Gal(b1-4)Glc
Summary of the method: as §1

Gal(b1-3)GlcNAc = biological target: Gal(b1-3)GlcNAc
Summary of the method: as §1

[10] = biological target: Gal(b1-3)GlcNAc(a1-3)Gal(b1-4)GlcNAc
Summary of the method: as §1

[11] = biological target: Gal(b1-3)GlcNAc(a1-6)Gal(b1-4)GlcNAc
Summary of the method: as §1

Gal(b1-3)GlcNAc(b1-2)Man = biological target: Gal(b1-3)GlcNAc(b1-2)Man
Summary of the method: as §1

[12] = biological target: Gal(b1-3)GlcNAc(b1-2)Man(a1-3)[Gal(b1-3)GlcNAc(b1-2)Man(a1-6)]Man(b1-4)GlcNAc(b1-4)GlcNAc
Summary of the method: as §1

[13] = biological target: Gal(b1-3)GlcNAc(b1-2)Man(a1-3)[Gal(b1-3)GlcNAc(b1-2)Man(a1-6)]Man(b1-4)GlcNAc(b1-4)[Fuc(a1-6)]GlcNAc
Summary of the method: as §1

[14] = biological target: Gal(b1-3)GlcNAc(b1-2)Man(a1-3)[GlcNAc(b1-4)][Gal(b1-3)GlcNAc(b1-2)Man(a1-6)]Man(b1-4)GlcNAc(b1-4)GlcNAc
Summary of the method: as §1

[15] = biological target: Gal(b1-3)GlcNAc(b1-2)[Gal(b1-3)GlcNAc(b1-6)]Man(a1-6)[Gal(b1-3)GlcNAc(b1-2)Man(a1-3)]Man(b1-4)GlcNAc(b1-4)GlcNAc
Summary of the method: as §1

[16] = biological target: Gal(b1-3)GlcNAc(b1-3)Gal(b1-3)GlcNAc
Summary of the method: as §1

[17] = biological target: Gal(b1-3)GlcNAc(b1-3)Gal(b1-4)Glc
Summary of the method: as §1

[18] = biological target: Gal(b1-3)GlcNAc(b1-3)Gal(b1-4)GlcNAc
Summary of the method: as §1

[19] = biological target: Gal(b1-3)GlcNAc(b1-3)Gal(b1-4)GlcNAc(b1-2)Man(a1-3)[Gal(b1-3)GlcNAc(b1-3)Gal(b1-4)GlcNAc(b1-2)Man(a1-6)]Man(b1-4)GlcNAc(b1-4)GlcNAc
Summary of the method: as §1

[20] = biological target: Gal(b1-3)GlcNAc(b1-3)Gal(b1-4)GlcNAc(b1-2)[Gal(b1-3)GlcNAc(b1-3)Gal(b1-4)GlcNAc(b1-6)]Man(a1-6)[Gal(b1-3)GlcNAc(b1-3)Gal(b1-4)GlcNAc(b1-2)Man(a1-3)]Man(b1-4)GlcNAc(b1-4)[Fuc(a1-6)]GlcNAc
Summary of the method: as §1

[21] = biological target: Gal(b1-3)GlcNAc(b1-3)Gal(b1-4)GlcNAc(b1-3)Gal(b1-4)GlcNAc(b1-2)[Gal(b1-3)GlcNAc(b1-3)Gal(b1-4)GlcNAc(b1-3)Gal(b1-4)GlcNAc(b1-6)]Man(a1-6)[Gal(b1-3)GlcNAc(b1-3)Gal(b1-4)GlcNAc(b1-3)Gal(b1-4)GlcNAc(b1-2)Man(a1-3)]Man(b1-4)GlcNAc(b1-4)[Fuc(a1-6)]GlcNAc
Summary of the method: as §1

[22] = biological target: Gal(b1-3)GlcNAc(b1-3)Gal(b1-4)GlcNAc(b1-6)[Gal(b1-3)GlcNAc(b1-3)]Gal(b1-4)Glc
Summary of the method: as §1

[23] = biological target: Gal(b1-3)GlcNAc(b1-3)Gal(b1-4)[Fuc(a1-3)]GlcNAc
Summary of the method: as §1

[24] = biological target: Gal(b1-3)GlcNAc(b1-3)Gal(b1-4)[Fuc(a1-3)]GlcNAc(b1-6)[Gal(b1-3)GlcNAc(b1-3)]Gal(b1-4)Glc
Summary of the method: as §1

[25] = biological target: Gal(b1-3)GlcNAc(b1-3)GalNAc
Summary of the method: as §1

[26] = biological target: Gal(b1-3)GlcNAc(b1-6)Gal(b1-4)GlcNAc
Summary of the method: as §1

[27] = biological target: Gal(b1-3)GlcNAc(b1-6)GalNAc
Summary of the method: as §1

B1: ECL (Erythrina cristagalli), Q6YD91 (protein)
chain: VETISFSFSEFEPGNNDLTLQGAAIITQSGVLQLTKINQNGMPAWDSTGRTLYTKPVHIWDMTTGTVASFETRFSFSIEQPYTRPLPADGLVFFMGPTKSKPAQGYGYLGVFNNSKQDNSYQTLAVEFDTFSNPWDPPQVPHIGIDVNSIRSIKTQPFQLDNGQVANVVIKYDASSKILLAVLVYPSSGAIYTIAEIVDVKQVLPEWVDVGLSGATGAQRDAAETHDVYSWSFHASLPETND
glycan array binding signal (z-score) [1]: 0.022
glycan array binding signal (z-score) [2]: -0.154
glycan array binding signal (z-score) (Gal(a1-4)Gal(b1-4)Glc): -0.119
glycan array binding signal (z-score) (Gal(a1-4)Gal(b1-4)GlcNAc): -0.21
glycan array binding signal (z-score) [3]: 0.492
glycan array binding signal (z-score) [4]: -0.257
glycan array binding signal (z-score) (Gal(a1-4)GlcNAc): -0.353
glycan array binding signal (z-score) (Gal(a1-6)Glc): -0.235
glycan array binding signal (z-score) (Gal(b1-2)Gal): -0.123
glycan array binding signal (z-score) (Gal(b1-3)Gal): -0.289
glycan array binding signal (z-score) (Gal(b1-3)Gal(b1-4)GlcNAc): -0.1
glycan array binding signal (z-score) (Gal(b1-3)GalNAc): -0.308
glycan array binding signal (z-score) [5]: -0.16
glycan array binding signal (z-score) [6]: -0.253
glycan array binding signal (z-score) (Gal(b1-3)GalNAc(b1-3)Gal): -0.496
glycan array binding signal (z-score) [7]: -0.199
glycan array binding signal (z-score) [8]: -0.141
glycan array binding signal (z-score) [9]: -0.283
glycan array binding signal (z-score) (Gal(b1-3)GlcNAc): -0.327
glycan array binding signal (z-score) [10]: -0.574
glycan array binding signal (z-score) [11]: -0.22
glycan array binding signal (z-score) (Gal(b1-3)GlcNAc(b1-2)Man): -0.203
glycan array binding signal (z-score) [12]: -0.106
glycan array binding signal (z-score) [13]: -0.074
glycan array binding signal (z-score) [14]: -0.3
glycan array binding signal (z-score) [15]: -0.139
glycan array binding signal (z-score) [16]: -0.206
glycan array binding signal (z-score) [17]: -0.286
glycan array binding signal (z-score) [18]: -0.332
glycan array binding signal (z-score) [19]: -0.304
glycan array binding signal (z-score) [20]: -0.302
glycan array binding signal (z-score) [21]: 0.381
glycan array binding signal (z-score) [22]: -0.186
glycan array binding signal (z-score) [23]: -0.329
glycan array binding signal (z-score) [24]: -0.28
glycan array binding signal (z-score) [25]: -0.15
glycan array binding signal (z-score) [26]: -0.345
glycan array binding signal (z-score) [27]: -0.493
